We go through 36 molecules from patent US12551573B2, “Compositions and methods for the targeting of PCSK9” (Scribe Therapeutics Inc., priority 2022, dated 2026).

Sequences and labels used below:
B1: DOMAIN_24614 (protein, listed as Cervus elaphus)
chain: PQDLMTFEDVAVEFTWWEWGQLDPAQKDLYREVMLENFKNLASLGFPVSKPYMICQLEEGEEPCILEREISTGVHSDWERR
B2: DOMAIN_25091 (protein, listed as Phascolarctos cinereus)
chain: VQESVTFRDLAVDFDMEEWGYLCPSQKELYREVMLENYRHLVSLGLLEAKPDLISRLEQEEPQVWEVQEGASGSVCACTGG
B3: DOMAIN_24771 (protein, listed as Myotis brandtii)
chain: FQEVVTFEDVAVHFTQAEWAGLSSAQRALHRSVMLENYGNLTSLGYTVPNSALISLLEGRDLPWGLEAQNDPPAERSTHVC
B4: DOMAIN_25063 (protein, listed as Phascolarctos cinereus)
chain: SHESVTFKDVAVDFTWEEWGYLDTSQKELYWEVMLENYRNLVSLGLADSNVDMISQLESGEAHGIPVDSVLRSCWPDGDTR
B5: DOMAIN_25157 (protein, listed as Myotis brandtii)
chain: DKTIIAFGDVAVAFTEREWKLLSPAQRTLYRDVMLETYSHLVSLGIAFSKPKFITQLEQGDEPWREESECLLELCPEPRTE
B6: DOMAIN_25094 (protein, listed as Phascolarctos cinereus)
chain: SQESLTFKDVAVDFTQEEWGKLDSGQRYLYRDVMLENYRNLVSLGHQGSKPYVISQLEQGQEPWIVEREISRGNCKDWGTR
B7: DOMAIN_25204 (protein, listed as Panthera pardus)
chain: AHRSLMFSDVSIVFSQEEWEYLDLEQRDLYRDVMLENYSNLVSLGCFISKPDVISLLEQGKEPWKVVRKGRRRYAAPMSIA
B8: DOMAIN_25052 (protein)
chain: LFESVSFKDVTIDFSWEEWQQLDFAQKSLYRDVMLENYFNLISVGCQVPKPEVIFNLEQVENPCMLHRKISRQSCLDGDIG
modifications: Pteropus alecto
B9: DOMAIN_25131 (protein, listed as Sapajus apella)
chain: LQEPLEFMDVAIEFSLEEWHCLDTAQRNLYRDVMLENYRNLVFLGIVVSKPDLITWLEQGKKPLTVKRRGMIAAPPGMSSH
B10: DOMAIN_24947 (protein, listed as Ursus maritimus)
chain: ASCGLLTFRDVAIEFSQEEWRCLSHTQRELYRDVMLENYGHLLFLGLIVSKPDLVSFLELRKDPWDVKRRKTAGFDPGRWQ
B11: DOMAIN_24788 (protein, listed as Vombatus ursinus)
chain: FQESVTFKDVAVEFTGEEWRQLDRAQRSLFRDVMLENYRNLVSLGLTVAKPNLIFLLERGEAPWTLQRQIPGGTSSDCPCW
B12: DOMAIN_25016 (protein, listed as Oryctolagus cuniculus)
chain: SLGPVSFKDVAVGFTQEEWRQLEPAQRRTYREVMLENYSHLVAVGCHFIKPDVITKLERGEEPWIEGGFLPQGCAGDEVWQ
B13: DOMAIN_24939 (protein, listed as Phascolarctos cinereus)
chain: PQEQVTFSDVAVDFTVEEWGRLAPAQKELYRSVMLENYRNLVCLGLAASSPDVIGQLERGEGPWRVEGKVRKGLCADQKTS
B14: DOMAIN_24786 (protein, listed as Vombatus ursinus)
chain: FQESVTFKDVAVDFTQEEWAQLDPPQRNLYRDVMLENYEHFVFLGLPVAKPEVISQLERGEVPLFPEQPEFSTSICPDSLN
B15: DOMAIN_24725 (protein)
chain: RPGAVSFADVAVYFSPEEWGCLRPAQRALYRNVMRETYGHLGALGFAGPKPALISWLERKKEVWSPEAEDPEAGARHPGSG
modifications: Ursus arctos
B16: DOMAIN_25128 (protein, listed as Sapajus apella)
chain: DSVAFEDVAINFTCEEWALLGPSQKSLYRDVMQETIRNLDCIGMKWQNLDIEEDEYKNPGRNLRCFMVERSCEIKDNSQCG
B17: DOMAIN_25194 (protein, listed as Macaca nemestrina)
chain: SQEPVTFADVAVVFTPEEWVFLDSTQRSLYRDVMLENYRNLASVADQLCKPNASSYLEQRGEQWTTDRGILADTCAEPQLQ
B18: DOMAIN_25384 (protein, listed as Rhinolophus ferrumequinum)
chain: DHELVTFRDVIINFSQDEWEYLNSAQRDLYWDVMMENYSNLVSLGCFISKPDVISLLEQGKEPWKVVRKERRRYPDLETRH
B19: DOMAIN_24677 (protein, listed as Lynx pardinus)
chain: SKVPVTFGDLAIYFSQEEWEWLSPIQKDLYEDVMLENYQNLVSLGLSFRRPNVITLLEKGRAPWMVEPVRKRRVLDSRSKY
B20: DOMAIN_24867 (protein)
chain: TQEHVTFRDVAVFFSQDEWLHLDSAQRALYREVMLENYSSLVSLGIPFSMPKLIHQLQQGEDPCMVEREVSADTCLGFKTW
modifications: Nomascus leucogenys
B21: DOMAIN_24719 (protein, listed as Muntiacus reevesi)
chain: CNMSLSFSDVAVDLSQEEWECMSPAQRALYRDVMLENYSNLVSLGCSTPKPDMITLLEQEKEPWMILREGTGSWFTDLESE
B22: DOMAIN_24975 (protein)
chain: RPRAVKFGDVALYFSREEWGCLRPAQRALYRDVMQETYGHLGALGCAGPKPALISWLERNTDDWEPAALDPQQCPKGVAVQ
modifications: Muntiacus muntjak
B23: DOMAIN_25400 (protein, listed as Lynx canadensis)
chain: FQELVTFRDVAIDFSRQEWEYLDSVQRDLYRDVMLENYRNLVSLGHSISKPDVVDLLEQGKEPWMILREETQRQYTDLDLH
B24: DOMAIN_24993 (protein, listed as Oryctolagus cuniculus)
chain: KPAAVSFADVAVYFSPEEWGCLRPAQRALYREVMRETYGLLGALGGGGTKPALICWVERDAELWGPDAQDPAAAAARGYGT
B25: DOMAIN_25146 (protein, listed as Macaca nemestrina)
chain: MVSFEDVAVLLSQEEWDCLIPAQRGLYRDVMLETYGNLVSLGLQASKPDVISRLEQGDKPWTPHILRTQRSWSWRHKRECY
B26: DOMAIN_25234 (protein, listed as Saimiri boliviensis)
chain: PQVSLTFEDVAVLFTRDEWRKLAPSQRNLYRDVMLENYRNLVSLGLPFTKPKVISLLQQGEDPWKVEKDSSGGCSPGCKSN
B27: DOMAIN_25060 (protein, listed as Ailuropoda melanoleuca)
chain: PQVLVSFEDVAVFLSREEWGCLGPAQRGLYRDVMLETYRNLISLGFQDSKPDVISKLEKGEEPWAPYSPRIEEGWIWSHGS
B28: DOMAIN_24653 (protein, listed as Cervus elaphus)
chain: TPQTLKPRAPGACSRARSPGPGIQDSDAVGSVTFEDVAVYFSWEEWALLDEAQRCLYHDVMLENFALTSSLGGPTGGGRVV
B29: DOMAIN_25334 (protein, listed as Phascolarctos cinereus)
chain: IQELVTFKDVAVDFTQEEWGLLNNPQKELYKEVMLENAQNMLSLGLPVPREDLFSYFEEREAPWLLEQEGLRSCCAEREIR
B30: DOMAIN_25389 (protein, listed as Ursus maritimus)
chain: SQEPVTFEDVAVYFTQNQWASLDPTQRALYREVMLENYANITSLAFPFPKPDLILQLERGEARWGLDPWIAIEGEALGGVH
B31: DOMAIN_25126 (protein)
chain: HQISVTFDDVALDFTQEEWILLDLSQRNLYRNVMLENYQNLVTVEYQLSKPKLIAWLEQQELRAVEQGILQEWETGLQTKG
modifications: Puma concolor
B32: DOMAIN_25106 (protein, listed as Canis lupus)
chain: AQGQVNFEDVAVYFSPEEWGLLDEAQRLLYRDVMLENLALMASLGYESSMSHGFASLELGSKPWGSDWADVTPARTRDTQG
B33: DOMAIN_25150 (protein, listed as Muntiacus reevesi)
chain: LSTQLTVEDVDIKFTPEEWECLDPAQRTLYRDVMEETYRNLLSVGIGPRLPDCSSCIHMTKKLQAKENSGKGEILQRVMCG
B34: DOMAIN_811 (protein, listed as Pan paniscus)
chain: GSQGNLPQAEITLMNQAQESVTFEDVAVNFTNREWQCLTYAQRHLYKDVMLENYGNMVSLGFPFPKPPLISHLEREVDPCV
B35: DOMAIN_812 (protein, listed as Pan paniscus)
chain: AEITLMNQAQDSRSILFQESVTFEDVAVNFTNREWQCLTYAQRHLYKDVMLENYGNMVSLGFPFPKPPLISHLEREVDPCV
B36: DOMAIN_802 (protein, listed as Pan paniscus)
chain: MAAGQREARPQVSLTFEDVAVLFTRDEWRKLAPSQRNLYRDVMLENYRNLVSLGLPFTKPKVISLLQQGEDPWEVEKDGSG

One assay deals with HBEGF locus. Type of assay: cell-based, human. The following applies: high-throughput screen of dXR repression of the HBEGF gene; abundance of each domain in the library before vs after diphtheria toxin selection; listed domains met p-value <0.01 and log2(fold change) >2.
Consider B1, for which the “Log2 (fold change)” value is 2.6295.
As to B2, the “Log2 (fold change)” value worked out at 2.9006.
The same measure, in the same setting: with B3 the figure was 3.3701.
In the case of B4, the “Log2 (fold change)” value is reported as 2.9436.
Turning to B5, the “Log2 (fold change)” value was found to be 3.0902.
Consider B6, for which the “Log2 (fold change)” value was 3.0413.
Regarding B7, the “Log2 (fold change)” value came out at 2.7595.
B8: the “Log2 (fold change)” value came to 2.3634.
As to B9, the “Log2 (fold change)” value is reported as 2.592.
With B10, the “Log2 (fold change)” value is 2.9491.
Turning to B11, the “Log2 (fold change)” value is given as 2.7694.
Regarding B12, the “Log2 (fold change)” value was found to be 2.9822.
For the molecule B13, the “Log2 (fold change)” value was 3.3066.
Turning to B14, the “Log2 (fold change)” value is listed as 2.9237.
Still for that read-out and setting: with B15 the figure was 3.4496; with B16, 2.588; with B17, 2.4613.
Consider B18, for which the “Log2 (fold change)” value is recorded as 3.5139.
B19: the “Log2 (fold change)” value is given as 2.3115.
B20: the “Log2 (fold change)” value turned out to be 3.469.
Consider B21, for which the “Log2 (fold change)” value amounted to 2.7499.
As for B22, the “Log2 (fold change)” value worked out at 3.2737.
As to B23, the “Log2 (fold change)” value was found to be 2.2285.
With B24, the “Log2 (fold change)” value is 3.3817.
For B25, the “Log2 (fold change)” value is 3.629.
With B26, the “Log2 (fold change)” value is 2.743.
Regarding B27, the “Log2 (fold change)” value came out at 3.6002.
The same measure, in the same setting: for B28 the value was 2.9883.
In the case of B29, the “Log2 (fold change)” value is reported as 2.7501.
Take B30: the “Log2 (fold change)” value is 3.0814.
In the case of B31, the “Log2 (fold change)” value is given as 2.1478.
With B32, the “Log2 (fold change)” value stood at 2.8622.
Consider B33, for which the “Log2 (fold change)” value stood at 3.147.

The same assay, now with this note: high-throughput screen of dXR repression of the HBEGF gene; change in abundance of each domain in the library before and after diphtheria toxin selection.
Turning to B34, the “Log2 (fold change)” value came out at 2.4706.
On the same count and under the same terms, for B35 the value was 2.8201.
As to B36, the “Log2 (fold change)” value was found to be 2.6563.
